In patent publication US20240262848A1, “HETEROCYCLIC COMPOUNDS, COMPOSITIONS THEREOF, AND METHODS OF TREATMENT THEREWITH” (BeiGene, Ltd., priority 2022, published 2024):

What was measured:
[1] = biological target: GST-tagged GDP-loaded WT KRAS (amino acids 1-188) (Homo sapiens, UniProt P01116); assay: KRAS WT probe displacement assay (run with the KRAS G12D assay, TR-FRET); type: binding; settings: Table 5; WT KRAS 3 nM, biotinylated probe 1 60 nM
[2] = biological target: GST-tagged GDP-loaded WT KRAS (amino acids 1-169) (Homo sapiens, UniProt P01116); assay: KRAS WT probe displacement assay (run with the KRAS G12V assay, TR-FRET); type: binding; settings: Table 4; WT KRAS 3 nM, biotinylated probe 1 60 nM

| SMILES | IC50 [1] [pM] | IC50 [2] [pM] |
| --- | --- | --- |
| C#Cc1c(F)ccc2cc(O)cc(-c3nc4c5c(nc(OC[C@@]67CCCN6C[C@H](F)C7)nc5c3F)N(C)CCCO4)c12 [Example 10, 5-ethynyl-6-fluoro-4-(4-fluoro-2-(((2R,7aS)-2-fluorotetrahydro-1H-pyrrolizin-7a(5H)-yl)methoxy)-11-methyl-8,9,10,11-tetrahydro-7-oxa-1,3,6,11-tetraazacycloocta[de]naphthalen-5-yl)naphthalen-2-ol] | 3000 | 3000 |
| C[C@@H]1C[C@H](C)Oc2nc(-c3cc(N)cc(Cl)c3C(F)(F)F)c(F)c3nc(OC[C@@]45CCCN4C[C@H](F)C5)nc(c23)N1C [Example 34, 3-chloro-5-((8S,10R)-4-fluoro-2-(((2R,7aS)-2-fluorotetrahydro-1H-pyrrolizin-7a(5H)-yl)methoxy)-8,10,11-trimethyl-8,9,10,11-tetrahydro-7-oxa-1,3,6,11-tetraazacycloocta[de]naphthalen-5-yl)-4-(trifluoromethyl)aniline] | 1000 | 1000 |
| Cc1cc(N)cc(-c2nc3c4c(nc(OC[C@]56CCC[C@H]5N(C)CCC6)nc4c2F)N(C)[C@H]2CCOC[C@@H]2O3)c1C(F)(F)F [Example 65, 3-((7aR,11aS)-4-fluoro-12-methyl-2-(((4aS,7aR)-1-methyloctahydro-4aH-cyclopenta[b]pyridin-4a-yl)methoxy)-7a, 8,10,11,11a, 12-hexahydro-7,9-dioxa-1,3,6,12-tetraazapleiaden-5-yl)-5-methyl-4-(trifluoromethyl)aniline] | 610 | 610 |
| CN1CCC[C@@]2(COc3nc4c5c(nc(-c6cc(N)cc(Cl)c6C(F)(F)F)c(F)c5n3)O[C@H]3COCC[C@@H]3N4C)CCC[C@@H]12 [Example 64, 3-chloro-5-((7aR,11aS)-4-fluoro-12-methyl-2-(((4aS,7aR)-1-methyloctahydro-4aH-cyclopenta[b]pyridin-4a-yl)methoxy)-7a, 8,10,11,11a, 12-hexahydro-7,9-dioxa-1,3,6,12-tetraazapleiaden-5-yl)-4-(trifluoromethyl)aniline] | 230 | 230 |
| CN1c2nc(OC[C@@]34CCCN3C[C@H](F)C4)nc3c(F)c(-c4cc(N)cc(Cl)c4C(F)(F)F)nc(c23)O[C@H]2COCC[C@@H]21 [Example 49, 3-chloro-5-((7aR,11aS)-4-fluoro-2-(((2R,7aS)-2-fluorotetrahydro-1H-pyrrolizin-7a(5H)-yl)methoxy)-12-methyl-7a, 8,10,11,11a, 12-hexahydro-7,9-dioxa-1,3,6,12-tetraazapleiaden-5-yl)-4-(trifluoromethyl)aniline] | 570 | 570 |
| CN1c2nc(OC[C@@]34CCCN3C[C@H](F)C4)nc3c(F)c(-c4cc(N)cc(Cl)c4C(F)(F)F)nc(c23)OCCC12CC2 [Example 31, 3-chloro-5-(4-fluoro-2-(((2R,7aS)-2-fluorotetrahydro-1H-pyrrolizin-7a(5H)-yl)methoxy)-11-methyl-8,9-dihydro-11H-7-oxa-1,3,6,11-tetraazaspiro[cycloocta[de]naphthalene-10,1′-cyclopropan]-1(11a), 2,3a, 4,6-pentaen-5-yl)-4 (trifluoromethyl)aniline] | 800 | 800 |
